Reference: PubChem BioAssay AID686978 (National Center for Advancing Translational Sciences (NCATS), 2013)
The whole screen tested about 420,000 compounds, of which about 64,000 (15%) were called active. Inconclusive means that the source gave no clear call. Such entries were picked first, then a sample of the others. The call rests on the fitted dose curve; in most records, active means well fitted inhibition curve with a large enough effect; inconclusive means small, poorly fitted or top-dose-only effect; inactive means flat fitted curve, though single readings scatter. No potency is given beside an inconclusive call; the fits are too rough.

Assay: qHTS for Inhibitors of human tyrosyl-DNA phosphodiesterase 1 (TDP1): qHTS in cells in absence of CPT; further: nearly all actives have a fitted effect of over 55% in size
Settings: DT40 Tdp1-/- hTDP1 cells, no CPT, ATP luminescence, 48 h; series mostly up to 46.2 µM
In short: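 Growth of hTDP1-complemented DT40 Tdp1-knockout cells is measured by ATP luminescence after at least 48 hr compound exposure at 37 °C, with DMSO substituting for the 20 nM CPT used in the parallel screen.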
Potency means the concentration at half of the fitted maximal effect; tags describe the fitted curve by direction and shape.

Compound	Potency
Cc1ccc2c(=O)cc(C(=O)Nc3ccc(S(=O)(=O)N4CCCCCC4)cc3)oc2c1	inactive
O=C(NNC(=S)NC(=O)c1cccs1)c1ccc(O)cc1	inconclusive [inhibitor, partial curve]
O=C(CSc1nc(=O)n(Cc2ccco2)c2c1CCC2)Nc1ccccc1C(F)(F)F	inconclusive [inhibitor, single point]
COc1ccc(Nc2nc(C)cc(C)c2C(N)=O)cc1	inconclusive [inhibitor, single point]
CC(=O)N1CCN(c2ccc(NC(=O)c3ccc(Cl)c([N+](=O)[O-])c3)cc2)CC1	inactive
FC(F)C(F)(F)Oc1cccc(-c2n[nH]c(=S)n2Cc2ccccc2)c1	inconclusive [inhibitor, single point]
Cc1ccccc1OCC(=O)Nc1ccc(S(=O)(=O)N2CCCC2)cc1	inconclusive [inhibitor, single point]
CC1=C(C(=O)Nc2ccccc2C(F)(F)F)C(c2ccc(C)s2)NC(=S)N1 (stereo not given)	inconclusive [inhibitor, single point]
Cc1cc(C(=O)Nc2ccc(Br)cn2)sc1C	inactive
COc1ccc2cnn(Cc3ccccc3)c(=O)c2c1OC	inconclusive [inhibitor, single point]
CCN(Cc1ccccc1)C(=O)Cn1c(=O)n(-c2ccc(Cl)cc2)c(=O)c2c(C)c(C)sc21	active: 18.4 µM
Cc1ccc2c(c1)C=CC(C)(C)S2=O (stereo not given)	inactive
Cc1ccc(S(=O)(=O)N(C)C)cc1NC(=O)COC(=O)CCC1CCCCC1	inactive
COc1ccc(OC)c(/C=N/NC(=O)CCN2CCN(C(c3ccccc3)c3ccccc3)CC2)c1	active: 16.4 µM
COc1ccc(-c2cc(C(=O)OCC(=O)N(C)C3CCS(=O)(=O)C3)c3ccccc3n2)cc1OC (stereo not given)	inconclusive [inhibitor, partial curve, poor fit]
CC(C)COc1ccc(C(=O)OC2CC(C)(C)OCC2CN(C)C)cc1 (stereo not given)	inconclusive [inhibitor, single point]
OC(c1ccccc1)c1ncc(-c2ccc(Oc3ccccc3)cc2)[nH]1 (stereo not given)	active: 18.4 µM
O=C(O)c1ccc([N+](=O)[O-])cc1	inactive
CC(=O)N1CCCc2cc(S(=O)(=O)N3CCC(C(=O)NCc4ccccc4)CC3)ccc21	inconclusive [inhibitor, single point]
COc1ccc(S(=O)(=O)Nc2ccc(-n3cccc3)cc2)cc1	inactive
CCN1C(=O)c2ccccc2S(=O)c2ccc(C(=O)N3CCCCCC3)cc21 (stereo not given)	inconclusive [inhibitor, single point]
CCN1CCc2nc(NC(=O)C(c3ccccc3)c3ccccc3)sc2C1	inconclusive [inhibitor, single point]
CCc1nnc(SCC(=O)N(CC)c2ccccc2)c2cc3oc(C)cc3n12	inconclusive [inhibitor, single point]

Compound	Potency
CC(=O)Nc1ccc(S(=O)(=O)NCCC(=O)OCc2csc(CC(=O)Nc3ccccc3C)n2)cc1	inconclusive [inhibitor, single point]
Cn1cccc1C(=O)OCC(=O)NC(=O)c1ccc(Cl)cc1	inactive
Cc1ccc(CN2CCSc3ccc(C(=O)Nc4ccc(C)cc4)cc32)cc1	active: 16.4 µM
O=S(=O)(Cc1cc(Oc2ccccc2)nc(-c2ccccc2)n1)c1ccccc1	inconclusive [inhibitor, single point]
Cc1c(NC(=O)C(C)OC(=O)c2ccc([N+](=O)[O-])cc2Cl)c(=O)n(-c2ccccc2)n1C (stereo not given)	inactive
CN(C)c1ccc(C=O)c(Oc2ccccc2)c1	inconclusive [inhibitor, single point]
CCN(CC)S(=O)(=O)c1cc(NC(=O)Cn2cnc3ccccc3c2=O)ccc1C	inconclusive [inhibitor, single point]
CCOc1ccccc1NS(=O)(=O)c1ccc2oc(=O)ccc2c1	inconclusive [inhibitor, partial curve]
COc1ccc(NC(=O)c2ccc(NC(=O)CN(C)CC(=O)Nc3c(C)cccc3C)cc2)cc1	inconclusive [inhibitor, single point]
O=C(CN1C(=O)NC(c2ccccc2)(c2ccccc2)C1=O)NCc1cccs1	inactive
CCN(CCc1ccccc1)c1ccc2c(c1)C1CC2CCN1Cc1ccccc1 (stereo not given)	active: 5.8 µM
O=C(C1CCN(S(=O)(=O)c2cccc3nsnc23)CC1)N1CCCc2ccccc21	inconclusive [inhibitor, partial curve]
CCOc1cc(CNc2ccc(OC)cc2)cc(Br)c1OCC(=O)NC(C)(C)C	inconclusive [inhibitor, single point]
CC(C)C(=O)Nc1nc(-c2ccc([N+](=O)[O-])cc2)cs1	active: 4.61 µM
Cc1ccc2cc(CN(Cc3ccco3)C(=O)NCc3ccccc3)c(=O)[nH]c2c1C	inconclusive [inhibitor, single point]
Clc1ccc(-c2ccc(CN3CCCCC3)o2)cc1	inconclusive [inhibitor, full curve, poor fit]
Cc1ccc(C)c(C(=O)COC(=O)c2c(-c3ccccc3)noc2C)c1	inconclusive [inhibitor, single point]
FC(F)(F)c1ccc2c(c1)n(Cc1ccccc1)c1[n+]2CCCCC1	inconclusive [inhibitor, single point]
CCOC(=O)C(NC(=O)N(C)C)(Nc1sc(C)c(CC)c1C#N)C(F)(F)F (stereo not given)	inactive
Cn1cc(CNCc2cn(C)nc2-c2ccc(C3CCCCC3)cc2)cn1	active: 18.4 µM
COc1ccc(S(=O)(=O)Nc2ccc(O)c(Sc3ncn[nH]3)c2)cc1	inactive
Cc1cc(C)c(C(=O)C(C)OC(=O)Cc2n[nH]c(=O)c3ccccc23)cc1C (stereo not given)	inconclusive [inhibitor, single point]
